The source of these data is the RNAGym collection of RNA variant scans (doi:10.7554/elife.90254).

B1: LINE1-mini (parent)
chain: GGCAGAGCUCAACACAGCGUGGCAAAGUGGCUGUGGCUAGACUGCC

The source gives no read counts; variants with many changes may rest on few reads.

Variants of B1 are the subject of this data set. The experiment in a line: self-cleavage, relative activity (ratio to wild type); higher = more cleavage; in vitro, sequencing; the parent is a self-cleaving ribozyme.
Regarding GGCAGAACGCAACACAGCGUGGCAAAGUGGCUGUGGCUAGACUGCA [G7A U9G C46A], the self-cleavage is 0.07.

As to GGCAGAACCCAACACAGCGUGGCAAAAUGGCUGUGGUUAGACUGUC [G7A U9C G27A C37U C45U], the self-cleavage was 0.07.

For the variant GGCAGAACACAACAUAGCGUAGCAAAUUGGCUGUGGCUGGAUUGCC [G7A U9A C15U G21A G27U A39G C42U], the self-cleavage came to 0.7.

As for GGCAGAACACAACACAGCGUGGCAAAGUAGCUGUGGCUAGCCUGCC [G7A U9A G29A A41C], the self-cleavage was found to be 0.4.

Turning to GGCAGAACACAAUACAGCGUGGCAAAGUGGCUGUGACUAGACUGCC [G7A U9A C13U G36A], the self-cleavage stood at 0.52.

Take GGCAGAACUCAACACAGCGUGGCAAAGGGGCUGUGGCUAGGCUGCC [G7A U28G A41G]: the self-cleavage stood at 0.05.

GGCAGAACUCAACACAGCGGGGCAAUGUGGCUGCGGCUAGACUGCC [G7A U20G A26U U34C]: the self-cleavage was determined as 0.11.

Consider GGCAGAACUCAACACAGCGUGGCAAAGGGCCUGUGGCUAGACAGCC [G7A U28G G30C U43A], for which the self-cleavage came to 0.02.

With GGCAGAACUCAACACAGCGAAUCAAAGUGGCUGUGGCUAGACUGCC [G7A U20A G21A G22U], the self-cleavage stood at 0.

As to GGCAGAACGCAGCACAGCGUGGCAAAGUGGCUGUGGCUAGACUGUC [G7A U9G A12G C45U], the self-cleavage worked out at 0.01.

Consider GGCAGAACUCAACACAGCGUGGCAAAGAGGCUGAGGCGAGACUGCC [G7A U28A U34A U38G], for which the self-cleavage was 0.08.

As for GGCAGAACACAACACAGCGUGGAAAAGUGGCUGUGGCUAGACCGCC [G7A U9A C23A U43C], the self-cleavage was found to be 0.11.

As to GGCAGAACACAACACAGCGUGGCAACGUGGCUGUGGCUAUACUGCC [G7A U9A A26C G40U], the self-cleavage was found to be 0.04.

With GGCAGAACGCAACACAGCGUGGCAUAGUGGCUGUGGCUAUACUGCC [G7A U9G A25U G40U], the self-cleavage turned out to be 0.08.

Consider GGCAGAACACAACACAGCGUAGCAAAGUGGCUGUGGCUAGACUGCC [G7A U9A G21A], for which the self-cleavage is 0.3.

With GGCAGAACUCAACACAGCGUGGCAAAGGUGAUGUGGCUACACUGCC [G7A U28G G29U C31A G40C], the self-cleavage was found to be 0.07.

For the variant GGCAGAACGCAACACAGCGUGGCAAAGUGGCUUUGGCUAGACUGCC [G7A U9G G33U], the self-cleavage came to 0.04.

For GGCAGAACCCAACACAGCGUGGCAAAGUGGCUGUGGCUAUACUGCC [G7A U9C G40U], the self-cleavage was 0.02.

For the variant GGCAGAACACAACACAGAGUGGCAAAGUGGCUGUGGCUAAACUGCC [G7A U9A C18A G40A], the self-cleavage amounted to 0.03.

In the case of GGCAGAACUCAACACAGCGUGGCAAAGCGGCUGUGGCUAGACUGAC [G7A U28C C45A], the self-cleavage was 0.04.

GGCAGAACUCAACACAGCGUGGCAAAGCGGCUGGGGCUGGAUUGCC [G7A U28C U34G A39G C42U]: the self-cleavage came to 0.04.

As to GGCAGAACAUAACACAGCGUGGCAAAGUGGAUGUGGCUAGACUGCC [G7A U9A C10U C31A], the self-cleavage worked out at 0.04.

With GGCAGAACUCAACACAGCGCGGCAAAGUGGCUGUGGAUAGACUGCC [G7A U20C C37A], the self-cleavage was 0.07.

As to GGCAGAACUCAACACAGCGCGGCAAAGUAGCUGUGGCUAGACUGCC [G7A U20C G29A], the self-cleavage came to 0.08.

On to GGCAGAACCCAACACAGCGUGGCAUAGUGGCUGUGGCUAGACUGCC [G7A U9C A25U], for which the self-cleavage was determined as 0.06.

On to GGCAGAACUCAACACAGCGUGGCAAAGCGGCUGUGGCUCGACUGCC [G7A U28C A39C], for which the self-cleavage came out at 0.04.

GGCAGAACGCAACACAGCGUGACAAAGUGGCUGUGGCUAGACUACC [G7A U9G G22A G44A]: the self-cleavage amounted to 0.06.

Take GGCAGAACUCAACACAGCGUGGCAAAGAGGCUGUGGCGAGACUGCC [G7A U28A U38G]: the self-cleavage is 0.01.

As for GGCAGAACUCAACACAGCGUGGCAAAGUGGCAGUGGCUAGAGUGCC [G7A U32A C42G], the self-cleavage stood at 0.03.

As for GGCAGAACUCAACACAGCGAGGCAAAGUGGCUGUGGAUAGACUGCC [G7A U20A C37A], the self-cleavage amounted to 0.02.

Regarding GGCAGAACUCAACACAGCGUGGCAAAGAGGCUGUGGCUCGACUGCC [G7A U28A A39C], the self-cleavage was determined as 0.22.

Regarding GGCAGAACACAACACAGCUUGGCAAAUUGGCUGUGGCAAGACUGCC [G7A U9A G19U G27U U38A], the self-cleavage was determined as 0.05.

In the case of GGCAGAACACAACACAGCGUGGCAAAGUGCCUGUGGCUAAACUGCC [G7A U9A G30C G40A], the self-cleavage is 0.38.

Consider GGCAGAACUCAACACAGCGGGGCAAAGUGGAUGUGGCUAGACUGUC [G7A U20G C31A C45U], for which the self-cleavage is 0.15.

Regarding GGCAGAACACAACACAGCGUGGCAAACUGGCUGUGGCUAGACUGCC [G7A U9A G27C], the self-cleavage amounted to 0.17.

Regarding GGCAGAACGCAACACAGUGUGGCAAAGUGGCUGUGGCUAGACUGCC [G7A U9G C18U], the self-cleavage was found to be 0.07.

Consider GGCAGAACUCAACACAGCGUGGCAAAGAGACUGUGGCUAGACUGCC [G7A U28A G30A], for which the self-cleavage was 0.16.

Turning to GGCAGAACUCAACACAGCGUGGCAAAGAGGCUGUGGCUAGACUGGC [G7A U28A C45G], the self-cleavage came to 0.18.

Turning to GGCAGAACACAACACAGCGUGGCAAAGUGGCUGCGGCUAGACUGCC [G7A U9A U34C], the self-cleavage is 0.14.

On to GGCAGAACACAACACAGCAUGGCAAAGUGGCUGUGGCUAGACUGCC [G7A U9A G19A], for which the self-cleavage stood at 0.4.

In the case of GGCAGAACUCAACACAGCGAGUCGAAGUGGCUGUGGCUAGACUACC [G7A U20A G22U A24G G44A], the self-cleavage amounted to 0.18.

In the case of GGCAGAACGCAACACAGCGUGGCAAAUUGGCUUUGGCUAGACUGCC [G7A U9G G27U G33U], the self-cleavage was found to be 0.09.

For GGCAGAACUCAACACAGCGCGGCAAGGUGGCUGUGGCUAGACUGCC [G7A U20C A26G], the self-cleavage amounted to 0.05.

For GGCAGAACCCAACACAGCGUGGCAAAGUGGCUGUGGAAAGACUGCC [G7A U9C C37A U38A], the self-cleavage turned out to be 0.07.

Consider GGCAGAACCCUCCACAGCGUGGCAAAGUGGCUGUGGCUAGACUGCC [G7A U9C A11U A12C], for which the self-cleavage was 0.01.

In the case of GGCAGAACCCGACACAGCGUGGCAAAGUGGCUGGGGCUAGACUGCC [G7A U9C A11G U34G], the self-cleavage came out at 0.04.

GGCAGAACUCAACACAGCGAGGCAAAGUGGCUGUAGCUAGACUGCC [G7A U20A G35A]: the self-cleavage worked out at 0.15.

As to GGCAGAACACAACACAGCGUGGCAGAGUGGCUUUGGCAAGACUGCC [G7A U9A A25G G33U U38A], the self-cleavage is 0.17.

Consider GGCAGAACGCAACCGAGCGUGGCAAAGUGGCUGUGGCUAGACUGUC [G7A U9G A14C C15G C45U], for which the self-cleavage stood at 0.01.

For GGCAGAACUCAACACAGCGGGGCAAAGUGGCCGUGGCUAGACUGCC [G7A U20G U32C], the self-cleavage worked out at 0.09.

As to GGCAGAACUCAACACAGCGAGGUAAAGUGGCUGUGGCUAGACUGCC [G7A U20A C23U], the self-cleavage stood at 0.05.

As to GGCAGAACUCAACACAGCGUGGCAAAGUGGCAGUUGCUAGCCUGCC [G7A U32A G35U A41C], the self-cleavage is 0.07.

Regarding GGCAGAACGCAACACAGCGUGGCAAAGGGGCUCUGGCGAGACUGCC [G7A U9G U28G G33C U38G], the self-cleavage stood at 0.02.

As for GGCAGAACCCAACACAGCGUGGCAAAGUGGGUGUGGCUAGACUGCC [G7A U9C C31G], the self-cleavage came to 0.04.

Take GGCAGAACUCAACACAGCGAGCCAAGCUGGCUGUGGAUAGACUGCC [G7A U20A G22C A26G G27C C37A]: the self-cleavage was 0.01.

GGCAGAACGCAACACAGCGUGCCAAAGUGGCUAUGGCUAGACUGCC [G7A U9G G22C G33A]: the self-cleavage stood at 0.05.
